Data: a collection of fitness landscapes (doi:10.1016/j.celrep.2020.107928)
Whole data set: some 81,000 sequences, median “one-hybrid fitness for binding parS DNA” near -0.17, cut for the highest 2% near 0.51. The list shows a part of the results.

B1: Caulobacter ParB omega fusion; a variant is named by its letters at X, in order, B8GW30 (parent)
chain: MESVVVGEPGMSEGRRGLGRGLSALLGEVDAAPAQAPGEQLGGSREAPIEILQRNPDQPRRTFREEDLEDLSNSIREKGVLQPILVRPSPDTAGEYQIVAGERAWRAAQRAGLKTVPIMVRELDDLAVLEIGIIENVQRADLNVLEEALSYKVLMEKFERTQENIAQTIGKSXSHVANXMRLLXLPDEVQSYLVSGELTAXHARAIAAAADPVALAKQIIEGGLSVRETEALARKAPNLSAGKSKGGRPPRVKDTDTQALESDLSSVLGLDVSIDHRGSTGTLTITYATLEQLDDLCNRLTRGI

Variants of: B1
Test: one-hybrid fitness for binding parS DNA (scaled: cognate 1, non-cognate 0); higher = stronger binding
Conditions: with parS DNA site
Method in brief: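 The reporter was HIS3, with the binding site 19 bp from the promoter, in E. coli USO used for bacterial one-hybrid selection of Caulobacter ParB libraries with four specificity codons randomised. Growth was on M9 lacking histidine, with 0.1 mM IPTG and 5 mM 3-AT, for 48 hours at 37°C. Illumina sequencing covered plasmids before and after selection; three replicate libraries were pooled and variants with under 10 reads dropped. A fitness score is the log change in variant-to-wild-type read ratio, rescaled to the cognate and non-cognate references.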

Variant	one-hybrid fitness for binding parS DNA
SQPP	≤ 0.2
KSQA	≤ 0.2
RNDS	0.823
DNKG	≤ 0.2
PFSA	≤ 0.2
THDC	≤ 0.2
DESC	≤ 0.2
LAHQ	≤ 0.2
GFSR	≤ 0.2
HFPR	≤ 0.2
PKRS	≤ 0.2
SPDL	≤ 0.2
KRHE	≤ 0.2
VTVL	≤ 0.2
PTTS	≤ 0.2
RGLS	0.65
LPTW	≤ 0.2
PLAI	≤ 0.2
FIFF	≤ 0.2
VRMS	≤ 0.2
RQVH	≤ 0.2
PLIH	≤ 0.2
VRPM	≤ 0.2
QIYC	≤ 0.2
SAAA	≤ 0.2
PFSK	≤ 0.2

Variant	one-hybrid fitness for binding parS DNA
RYCC	0.903
NRLV	≤ 0.2
VMRT	≤ 0.2
CSAD	≤ 0.2
LQSA	≤ 0.2
MTNI	≤ 0.2
ALSR	≤ 0.2
YKHK	≤ 0.2
EICS	≤ 0.2
QYWM	≤ 0.2
QEAT	≤ 0.2
DLEM	≤ 0.2
DCCT	≤ 0.2
VSHR	≤ 0.2
VNWR	≤ 0.2
PNTS	≤ 0.2
EHEV	≤ 0.2
RFGA	0.531
ETGG	≤ 0.2
DIKG	≤ 0.2
RMMQ	0.215
DSAL	≤ 0.2
HIAW	≤ 0.2
LAKS	≤ 0.2
YAAV	≤ 0.2
CLRG	≤ 0.2

Variant	one-hybrid fitness for binding parS DNA
DLPV	≤ 0.2
LFIG	≤ 0.2
PFIL	≤ 0.2
YPSE	≤ 0.2
KRNP	≤ 0.2
PPAP	≤ 0.2
PCMA	≤ 0.2
FILS	≤ 0.2
WYGK	≤ 0.2
IPQL	≤ 0.2
SYAA	≤ 0.2
KVLD	≤ 0.2
FNFS	≤ 0.2
SMYS	≤ 0.2
SRTS	≤ 0.2
KEDC	≤ 0.2
LWYL	≤ 0.2
IRRT	≤ 0.2
SSRL	≤ 0.2
GEQG	≤ 0.2
CVMI	≤ 0.2
SDPW	≤ 0.2
PIHM	≤ 0.2
GNRC	≤ 0.2
DIVC	≤ 0.2
STPP	≤ 0.2

Variant	one-hybrid fitness for binding parS DNA
ETDL	≤ 0.2
QWRC	≤ 0.2
HSGK	≤ 0.2
QLAD	≤ 0.2
EPSC	≤ 0.2
NVTA	≤ 0.2
EFWR	≤ 0.2
NDPM	≤ 0.2
VSKS	≤ 0.2
FVKG	≤ 0.2
RHWR	≤ 0.2
TPCY	≤ 0.2
HNAW	≤ 0.2
TVGM	≤ 0.2
AMDY	≤ 0.2
SWDM	≤ 0.2
YRSS	0.289
RMPH	≤ 0.2
RFWF	≤ 0.2
IWLV	≤ 0.2
SYQR	≤ 0.2
SIRI	≤ 0.2
GWYV	≤ 0.2
NTTD	≤ 0.2
MTWA	≤ 0.2
QTLR	≤ 0.2

Variant	one-hybrid fitness for binding parS DNA
WAAN	≤ 0.2
TGPM	≤ 0.2
SKAW	≤ 0.2
AKWL	≤ 0.2
HLTL	≤ 0.2
NRTM	≤ 0.2
ARLS	≤ 0.2
AYGA	≤ 0.2
PTMR	≤ 0.2
RIGG	1.02
DHKS	≤ 0.2
PKAL	≤ 0.2
ALDT	≤ 0.2
AWTI	≤ 0.2
DCRE	≤ 0.2
YEEE	≤ 0.2
KPID	≤ 0.2
RDCQ	≤ 0.2
HLLI	≤ 0.2
NHSR	≤ 0.2
CACC	≤ 0.2
RYIL	0.204
TFCI	≤ 0.2
TAKW	≤ 0.2
REKG	0.533
QASP	≤ 0.2

Variant	one-hybrid fitness for binding parS DNA
CIKT	≤ 0.2
NRTL	≤ 0.2
PYAC	≤ 0.2
MSQP	≤ 0.2
EDMV	≤ 0.2
LDLP	≤ 0.2
NIRY	≤ 0.2
QPDW	≤ 0.2
DHTW	≤ 0.2
NLLG	≤ 0.2
RHKC	0.858
GPIS	≤ 0.2
GTLC	≤ 0.2
IGRR	≤ 0.2
ASHP	≤ 0.2
ATLF	≤ 0.2
APPV	≤ 0.2
GQDK	≤ 0.2
TTVD	≤ 0.2
DHTE	≤ 0.2
ERPR	≤ 0.2
YYPI	≤ 0.2
WSCC	≤ 0.2
